Laboratory results published in patent US20220339143A1, “TAK-925 FOR USE IN TREATING NARCOLEPSY” (Takeda Pharmaceutical Company Limited, priority 2019, published 2022).
Further values from the same series stand in other lists.

Assay: Single dose PK in healthy subjects (Cohorts 1, 2, S1 and S2), plasma
Type: in vivo, human
Protocol: This study investigates (i) the safety and tolerability of Compound A (methyl (2R,3S)-3-((methylsulfonyl)amino)-2-(((cis-4-phenylcyclohexyl)oxy)methyl)piperidine-1-carboxylate) when a single dose given as a 9 hour continuous IV infusion is administered to healthy adults, healthy elderly subjects and patients with narcolepsy type 1 (NT1); (ii) the pharmacokinetics of Compound A when a single dose given as a 9 hour continuous IV infusion is administered to healthy adults, healthy elderly subjects and patients with narcolepsy type 1; and (iii) the pharmacodynamics (PD) effects of Compound A, primarily by evaluation of the sleep latency on MWT when a single dose given as a 9 hour continuous IV infusion is administered to patients with narcolepsy type 1.
Pharmacokinetics: Concentrations of Compound A in plasma, and CSF, and pharmacokinetics parameters.
On average, the time to reach the plateau appeared to be approximately 3 to 4 hours after the start of infusion. […] After switching off the IV infusion, Compound A plasma concentrations declined rapidly and in a biphasic manner with a mean terminal disposition phase t1/2z ranging approximately from 3.4 to 5.1 hours across all doses. […] Table 5 provides a summary of plasma concentrations of Compound A after a single IV infusion in healthy subjects. Table 6 provides a summary of pharmacokinetic parameters of Compound A after a single IV infusion in healthy subjects.

[1] = 7 mg, 0.17 hr After End of Infusion
[2] = 7 mg, 0.5 hr After End of Infusion
[3] = 7 mg, 0.75 hr After End of Infusion
[4] = 7 mg, 1 hr After End of Infusion
[5] = 7 mg, 1.5 hr After End of Infusion
[6] = 7 mg, 2 hr After End of Infusion
[7] = 7 mg, 3 hr After End of Infusion
[8] = 7 mg, 4 hr After End of Infusion
[9] = 7 mg, 6 hr After End of Infusion
[10] = 7 mg, 15 hr After End of Infusion
[11] = 14 mg, 0.17 hr After End of Infusion
[12] = 14 mg, 0.33 hr After End of Infusion
[13] = 14 mg, 0.5 hr After End of Infusion
[14] = 14 mg, 0.75 hr After End of Infusion
[15] = 14 mg, 1 hr After End of Infusion
[16] = 14 mg, 1.5 hr After End of Infusion
[17] = 14 mg, 2 hr After End of Infusion
[18] = 14 mg, 3 hr After End of Infusion
[19] = 14 mg, 4 hr After End of Infusion
[20] = 14 mg, 6 hr After End of Infusion
[21] = 14 mg, 15 hr After End of Infusion

## COC(=O)N1CCC[C@H](NS(C)(=O)=O)[C@@H]1CO[C@H]1CC[C@@H](c2ccccc2)CC1 [Compound A, methyl (2R,3S)-3-((methylsulfonyl)amino)-2-(((cis-4-phenylcyclohexyl)oxy)methyl)piperidine-1-carboxylate]
[1]
  Plasma concentration, Maximum: 10.6 ng/mL
  Plasma concentration, Median: 9.460 ng/mL
  Plasma concentration, Q3: 9.740 ng/mL
7 mg, 0.33 hr After End of Infusion
  Plasma concentration, Maximum: 8.86 ng/mL
[2]
  Plasma concentration, Maximum: 8.10 ng/mL
  Plasma concentration, Q3: 6.720 ng/mL
[3]
  Plasma concentration, Maximum: 5.95 ng/mL
  Plasma concentration, Q3: 5.790 ng/mL
[4]
  Plasma concentration, Maximum: 5.65 ng/mL
  Plasma concentration, Q3: 4.900 ng/mL
[5]
  Plasma concentration, Maximum: 4.74 ng/mL
  Plasma concentration, Q3: 4.590 ng/mL
[6]
  Plasma concentration, Maximum: 2.96 ng/mL
  Plasma concentration, Mean: 2.516 ng/mL
  Plasma concentration, Median: 2.340 ng/mL
  Plasma concentration, Minimum: 2.26 ng/mL
  Plasma concentration, Q1: 2.290 ng/mL
  Plasma concentration, Q3: 2.730 ng/mL
[7]
  Plasma concentration, Maximum: 1.99 ng/mL
  Plasma concentration, Mean: 1.774 ng/mL
  Plasma concentration, Median: 1.890 ng/mL
  Plasma concentration, Minimum: 1.45 ng/mL
  Plasma concentration, Q1: 1.610 ng/mL
  Plasma concentration, Q3: 1.930 ng/mL
[8]
  Plasma concentration, Maximum: 1.85 ng/mL
  Plasma concentration, Mean: 1.490 ng/mL
  Plasma concentration, Median: 1.480 ng/mL
  Plasma concentration, Minimum: 1.06 ng/mL
  Plasma concentration, Q1: 1.280 ng/mL
  Plasma concentration, Q3: 1.780 ng/mL
[9]
  Plasma concentration, Maximum: 1.24 ng/mL
  Plasma concentration, Mean: 0.9622 ng/mL
  Plasma concentration, Median: 0.9060 ng/mL
  Plasma concentration, Minimum: 0.746 ng/mL
  Plasma concentration, Q1: 0.7990 ng/mL
  Plasma concentration, Q3: 1.120 ng/mL
[10]
  Plasma concentration, Maximum: 0.501 ng/mL
  Plasma concentration, Mean: 0.1878 ng/mL
  Plasma concentration, Median: 0.000 ng/mL
  Plasma concentration, Minimum: 0.00 ng/mL
  Plasma concentration, Q1: 0.000 ng/mL
  Plasma concentration, Q3: 0.4380 ng/mL
7 mg, Predose
  Plasma concentration, Maximum: 0.00 ng/mL
  Plasma concentration, Median: 0.000 ng/mL
  Plasma concentration, Q3: 0.000 ng/mL
[11]
  Plasma concentration, Maximum: 22.7 ng/mL
  Plasma concentration, Mean: 19.38 ng/mL
  Plasma concentration, Median: 19.65 ng/mL
  Plasma concentration, Minimum: 14.1 ng/mL
  Plasma concentration, Q1: 18.00 ng/mL
  Plasma concentration, Q3: 22.20 ng/mL
[12]
  Plasma concentration, Maximum: 20.5 ng/mL
  Plasma concentration, Mean: 16.58 ng/mL
  Plasma concentration, Median: 17.00 ng/mL
  Plasma concentration, Minimum: 11.5 ng/mL
  Plasma concentration, Q1: 14.90 ng/mL
  Plasma concentration, Q3: 18.60 ng/mL
[13]
  Plasma concentration, Maximum: 18.1 ng/mL
  Plasma concentration, Mean: 14.95 ng/mL
  Plasma concentration, Median: 15.15 ng/mL
  Plasma concentration, Minimum: 10.6 ng/mL
  Plasma concentration, Q1: 12.80 ng/mL
  Plasma concentration, Q3: 17.90 ng/mL
[14]
  Plasma concentration, Maximum: 15.9 ng/mL
  Plasma concentration, Mean: 12.78 ng/mL
  Plasma concentration, Median: 12.90 ng/mL
  Plasma concentration, Minimum: 9.06 ng/mL
  Plasma concentration, Q1: 10.90 ng/mL
  Plasma concentration, Q3: 15.00 ng/mL
[15]
  Plasma concentration, Maximum: 14.6 ng/mL
  Plasma concentration, Mean: 11.65 ng/mL
  Plasma concentration, Median: 11.15 ng/mL
  Plasma concentration, Minimum: 8.00 ng/mL
  Plasma concentration, Q1: 10.80 ng/mL
  Plasma concentration, Q3: 14.20 ng/mL
[16]
  Plasma concentration, Maximum: 13.5 ng/mL
  Plasma concentration, Mean: 10.22 ng/mL
  Plasma concentration, Median: 10.12 ng/mL
  Plasma concentration, Minimum: 6.95 ng/mL
  Plasma concentration, Q1: 8.660 ng/mL
  Plasma concentration, Q3: 12.00 ng/mL
[17]
  Plasma concentration, Maximum: 9.15 ng/mL
  Plasma concentration, Mean: 6.888 ng/mL
  Plasma concentration, Median: 7.110 ng/mL
  Plasma concentration, Minimum: 4.84 ng/mL
  Plasma concentration, Q1: 5.060 ng/mL
  Plasma concentration, Q3: 8.060 ng/mL
[18]
  Plasma concentration, Maximum: 6.11 ng/mL
  Plasma concentration, Mean: 4.567 ng/mL
  Plasma concentration, Median: 4.435 ng/mL
  Plasma concentration, Minimum: 3.41 ng/mL
  Plasma concentration, Q1: 3.890 ng/mL
  Plasma concentration, Q3: 5.120 ng/mL
[19]
  Plasma concentration, Maximum: 5.24 ng/mL
  Plasma concentration, Mean: 3.873 ng/mL
  Plasma concentration, Median: 3.465 ng/mL
  Plasma concentration, Minimum: 2.97 ng/mL
  Plasma concentration, Q1: 3.100 ng/mL
  Plasma concentration, Q3: 5.000 ng/mL
[20]
  Plasma concentration, Maximum: 3.39 ng/mL
  Plasma concentration, Mean: 2.355 ng/mL
  Plasma concentration, Median: 2.090 ng/mL
  Plasma concentration, Minimum: 1.56 ng/mL
  Plasma concentration, Q1: 1.700 ng/mL
  Plasma concentration, Q3: 3.300 ng/mL
[21]
  Plasma concentration, Maximum: 1.78 ng/mL
  Plasma concentration, Mean: 0.7192 ng/mL
  Plasma concentration, Median: 0.4820 ng/mL
  Plasma concentration, Minimum: 0.237 ng/mL
  Plasma concentration, Q1: 0.3360 ng/mL
  Plasma concentration, Q3: 0.9980 ng/mL
14 mg, Predose
  Plasma concentration, Maximum: 0.00 ng/mL
  Plasma concentration, Mean: 0.000 ng/mL
  Plasma concentration, Median: 0.000 ng/mL
  Plasma concentration, Minimum: 0.00 ng/mL
  Plasma concentration, Q1: 0.000 ng/mL
  Plasma concentration, Q3: 0.000 ng/mL
28 mg, 3 hr After End of Infusion
  Plasma concentration, Maximum: 13.4 ng/mL
